pIC50: −log10 of the molar value. By IC50 is meant the dose at which the fit gives 50% viability; a limit (>, <) means that the fit lies beyond the doses tested. AUC, from the same fit, is the share of area under the viability curve across the 256-fold dose range: 1 means no effect, lower means more sensitive. For some of these results: The top dose, if marked as inferred, was derived from the fitted curves, not read from the paper. For some of these results: Drugs with an entry number were screened twice under separate entries, and the two screens often disagree.
How the values were obtained:
Assay in all cases: Viability of human cancer cell lines after 72 h of drug (GDSC screen)
[1] = compound: CC(C)[C@H](C(=O)Nc1ccc(C(=O)NO)cc1)c1ccccc1 [AR-42]; conditions: top dose 5.12 µM; top dose inferred
Procedure: (§1)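 Human cancer cell lines in 384-well plates, medium with 10% serum, drug for 72 h over a 256-fold dose range (nine 2-fold or five 4-fold steps up to the top dose). Adherent lines were fixed and stained with the nucleic acid dye Syto60, suspension lines read with resazurin; signal relative to control wells, capped at 0 and 100%. One two-parameter sigmoid per drug and line, fitted in a mixed model over all curves with the slope shared within a line.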

[2] = compound: CS(=O)(=O)N1CCN(Cc2cc3nc(-c4cccc5[nH]ncc45)nc(N4CCOCC4)c3s2)CC1 [GDC0941]; conditions: top dose 4 µM; screen: GDSC drug entry 1527; top dose inferred
Procedure: as §1

[3] = compound: C[C@]12O[C@H](C[C@]1(O)CO)n1c3ccccc3c3c4c(c5c6ccccc6n2c5c31)CNC4=O [CEP-701]; conditions: top dose 2 µM; top dose inferred
Procedure: as §1

[4] = compound: Cc1ccc(Nc2nccc(N(C)c3ccc4c(C)n(C)nc4c3)n2)cc1S(N)(=O)=O [Pazopanib]; conditions: top dose 8 µM
Procedure: as §1

Cell Line | AUC [1] | pIC50 [1] | AUC [2] | pIC50 [2] | AUC [3] | pIC50 [3] | AUC [4] | pIC50 [4]
SNU-81 (large intestine, adherent) | 0.977 | < 5.29 | 0.704 | 5.94 | 0.835 | < 5.70 | – | –
DOK (head and neck, adherent) | 0.754 | 5.59 | – | – | 0.542 | 6.76 | 0.945 | < 5.10
PANC-02-03 (pancreas, adherent) | 0.534 | 6.39 | 0.711 | 5.95 | 0.762 | 6.07 | 0.983 | < 5.10
OV-90 (ovary, adherent) | 0.669 | 5.96 | 0.842 | < 5.40 | 0.735 | 6.14 | 0.863 | < 5.10
HCC-15 (lung squamous cell carcinoma, adherent) | 0.91 | < 5.29 | 0.77 | 5.71 | 0.717 | 6.21 | 0.934 | < 5.10
NCC010 (kidney, adherent) | – | – | 0.746 | 5.87 | 0.697 | 6.33 | – | –
NCI-H1437 (lung adenocarcinoma, adherent) | 0.654 | 6.06 | – | – | 0.725 | 6.25 | 0.946 | < 5.10
CAPAN-1 (pancreas, adherent) | 0.708 | 5.88 | – | – | 0.716 | 6.26 | 0.986 | < 5.10
KNS-62 (lung squamous cell carcinoma, adherent) | – | – | 0.782 | 5.60 | 0.851 | < 5.70 | – | –
SKN (uterus, adherent) | 0.645 | 6.05 | 0.749 | 5.81 | 0.468 | 7.00 | 0.775 | 5.41
SKN-3 (head and neck, adherent) | 0.666 | 6.00 | 0.935 | < 5.40 | 0.689 | 6.33 | 0.962 | < 5.10
MIA-PaCa-2 (pancreas, adherent) | 0.739 | 5.78 | – | – | 0.697 | 6.32 | 0.768 | 5.48
SNU-407 (large intestine, adherent) | 0.57 | 6.29 | 0.83 | 5.51 | 0.705 | 6.28 | – | –
SNU-423 (liver, adherent) | 0.506 | 6.48 | 0.706 | 5.97 | 0.738 | 6.17 | 0.855 | < 5.10
Hey (ovary, adherent) | 0.472 | 6.57 | 0.774 | 5.83 | 0.464 | 7.00 | – | –
DIFI (large intestine, adherent) | – | – | 0.608 | 6.30 | 0.748 | 6.17 | – | –
SNU-182 (liver, adherent) | 0.571 | 6.30 | 0.768 | 5.81 | 0.588 | 6.66 | 0.969 | < 5.10
ASH-3 (thyroid, adherent) | 0.934 | < 5.29 | 0.708 | 6.01 | 0.688 | 6.38 | 0.878 | < 5.10
MS751 (cervix, adherent) | 0.833 | 5.53 | 0.895 | < 5.40 | 0.629 | 6.56 | 0.974 | < 5.10
RERF-LC-Sq1 (lung squamous cell carcinoma, adherent) | 0.703 | 5.80 | 0.717 | 5.86 | 0.926 | < 5.70 | 0.958 | < 5.10
Caov-4 (ovary, adherent) | – | – | 0.873 | < 5.40 | 0.951 | < 5.70 | 0.915 | < 5.10
SNU-C5 (large intestine, adherent) | 0.657 | 6.04 | 0.804 | 5.65 | 0.527 | 6.83 | – | –
TE-4 (oesophagus, adherent) | 0.638 | 6.12 | 0.7 | 6.04 | 0.631 | 6.54 | – | –
MDA-MB-415 (breast, adherent) | 0.931 | < 5.29 | 0.733 | – | 0.873 | < 5.70 | 0.871 | < 5.10

Cell Line | AUC [1] | pIC50 [1] | AUC [2] | pIC50 [2] | AUC [3] | pIC50 [3] | AUC [4] | pIC50 [4]
LOU-NH91 (lung squamous cell carcinoma, adherent) | 0.668 | 6.01 | 0.807 | 5.64 | 0.605 | 6.60 | 0.976 | < 5.10
NCI-H2009 (lung adenocarcinoma, adherent) | 0.906 | < 5.29 | 0.837 | 5.54 | 0.734 | 6.22 | 0.946 | < 5.10
HARA (lung squamous cell carcinoma, adherent) | 0.641 | 6.08 | 0.853 | 5.40 | 0.594 | 6.63 | 0.97 | < 5.10
SISO (cervix, adherent) | 0.754 | 5.78 | 0.772 | 5.83 | 0.684 | 6.40 | 0.945 | < 5.10
JHH-7 (liver, adherent) | 0.661 | 6.06 | 0.791 | 5.78 | 0.656 | 6.48 | 0.76 | 5.58
RCC-AB (kidney, adherent) | 0.433 | 6.70 | 0.774 | 5.68 | 0.691 | 6.29 | – | –
SAT (head and neck, adherent) | 0.616 | 6.10 | – | – | 0.681 | 6.27 | 0.935 | < 5.10
C-4-I (cervix, adherent) | 0.946 | < 5.29 | 0.925 | < 5.40 | 0.606 | 6.60 | 0.981 | < 5.10
647-V (bladder, adherent) | 0.85 | 5.41 | 0.81 | 5.67 | 0.759 | 6.15 | 0.921 | < 5.10
HCC-366 (non-small cell lung carcinoma, adherent) | – | – | 0.745 | 5.89 | 0.938 | < 5.70 | – | –
8505C (thyroid, adherent) | 0.61 | 6.18 | – | – | 0.672 | 6.41 | 0.952 | < 5.10
23132-87 (stomach, adherent) | 0.544 | 6.37 | 0.543 | 6.48 | 0.664 | 6.44 | 0.955 | < 5.10
LC-1-sq (lung squamous cell carcinoma, adherent) | 0.581 | 6.26 | 0.931 | < 5.40 | 0.749 | 6.13 | 0.985 | < 5.10
DoTc2-4510 (cervix, adherent) | 0.635 | 6.13 | – | – | 0.827 | 5.95 | 0.901 | < 5.10
SK-GT-4 (oesophagus, adherent) | 0.513 | 6.45 | 0.694 | 6.00 | 0.544 | 6.77 | – | –
OCUM-1 (stomach, adherent) | 0.981 | < 5.29 | – | – | 0.555 | 6.74 | – | –
EMC-BAC-2 (lung adenocarcinoma, adherent) | 0.544 | 6.36 | 0.813 | 5.57 | 0.486 | 6.94 | – | –
SK-N-AS (neuroblastoma, adherent) | 0.315 | 7.05 | – | – | 0.622 | 6.55 | 0.967 | < 5.10
MOLT-13 (T-cell lymphoblastic leukaemia, suspension) | 0.116 | 7.63 | 0.919 | < 5.40 | 0.683 | 6.42 | – | –
A704 (kidney, adherent) | – | – | 0.749 | 5.90 | 0.759 | 6.17 | 0.649 | 5.90
FADU (head and neck, adherent) | 0.801 | 5.62 | – | – | 0.606 | 6.62 | 0.952 | < 5.10
EMC-BAC-1 (lung adenocarcinoma, adherent) | 0.682 | 5.95 | 0.787 | 5.70 | 0.785 | 6.01 | – | –
PEO1 (ovary, adherent) | 0.538 | 6.39 | 0.747 | 5.88 | 0.678 | 6.40 | – | –
SK-MEL-5 (melanoma, adherent) | 0.978 | < 5.29 | 0.804 | 5.59 | 0.587 | 6.64 | – | –

Cell Line | AUC [1] | pIC50 [1] | AUC [2] | pIC50 [2] | AUC [3] | pIC50 [3] | AUC [4] | pIC50 [4]
OVCA420 (ovary, adherent) | 0.395 | 6.82 | 0.555 | 6.43 | 0.833 | 5.71 | – | –
NCI-H661 (large cell lung carcinoma, adherent) | 0.468 | 6.59 | – | – | 0.923 | < 5.70 | 0.943 | < 5.10
OVK-18 (ovary, adherent) | 0.983 | < 5.29 | 0.717 | 5.95 | 0.773 | 6.06 | – | –
SK-GT-2 (stomach, adherent) | – | – | 0.825 | 5.59 | 0.891 | < 5.70 | – | –
LU-99A (large cell lung carcinoma, adherent) | 0.807 | 5.59 | 0.619 | 6.28 | – | – | 0.97 | < 5.10
PANC-10-05 (pancreas, adherent) | 0.576 | 6.26 | 0.756 | 5.76 | – | – | 0.898 | < 5.10
HPAF-II (pancreas, adherent) | 0.802 | 5.46 | 0.696 | 5.97 | – | – | 0.902 | < 5.10
NCI-H2085 (lung adenocarcinoma, adherent) | 0.795 | 5.58 | 0.799 | 5.68 | – | – | 0.974 | < 5.10
HeLa (cervix, adherent) | 0.723 | 5.88 | – | – | 0.723 | 6.28 | 0.93 | < 5.10
CAL-54 (kidney, adherent) | 0.571 | 6.29 | 0.626 | 6.23 | – | – | 0.82 | 5.26
COLO-792 (melanoma, adherent) | 0.819 | 5.55 | 0.749 | 5.89 | – | – | 0.987 | < 5.10
NCC021 (kidney, adherent) | 0.498 | 6.50 | 0.748 | 5.83 | 0.892 | < 5.70 | – | –
PWR-1E (prostate, adherent) | – | – | 0.921 | < 5.40 | 0.733 | 6.24 | – | –
BCPAP (thyroid, adherent) | 0.468 | 6.58 | 0.916 | < 5.40 | – | – | 0.927 | < 5.10
ML-1 (thyroid, adherent) | 0.509 | 6.47 | 0.904 | < 5.40 | – | – | 0.635 | 5.90
HO-1-N-1 (head and neck, adherent) | 0.649 | 6.10 | 0.731 | 5.97 | – | – | 0.95 | < 5.10
SK-MG-1 (glioma, adherent) | 0.664 | 6.04 | 0.614 | 6.29 | 0.692 | 6.36 | – | –
GP5d (large intestine, adherent) | 0.603 | 6.23 | 0.82 | 5.70 | – | – | 0.976 | < 5.10
VM-CUB-1 (bladder, adherent) | 0.733 | 5.84 | 0.789 | 5.77 | – | – | 0.987 | < 5.10
HCC1143 (breast, adherent) | 0.712 | 5.79 | – | – | 0.797 | 5.85 | 0.918 | < 5.10
769-P (kidney, adherent) | 0.457 | 6.62 | 0.711 | 5.98 | – | – | 0.954 | < 5.10
ChaGo-K-1 (non-small cell lung carcinoma, adherent) | 0.783 | 5.60 | 0.884 | < 5.40 | – | – | 0.899 | < 5.10
GCT (soft tissue, adherent) | 0.964 | < 5.29 | 0.905 | < 5.40 | – | – | 0.942 | < 5.10

— the supplement of paper PMC4967469
